The values that follow come from PubChem BioAssay AID1240 (Sanford-Burnham Center for Chemical Genomics, 2008).

Each structure is given as a SMILES string. Hit rate of the full screen: of about 50,000 compounds, about 800 (1.6%) showed an effect of 50% or more. The list shows a part of the results.

The target of the assay is Bcl-2-like protein 10 (Homo sapiens) (UniProt Q9HD36). The experiment in a line: TR3 peptide-Bcl-B binding displacers, biochemical primary FP assay, phenotype converters (AID 1240).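 Further: 0% = Bcl-B with tracer peptide and DMSO and 100% = tracer peptide lacking Bcl-B.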 The settings on record: GST-Bcl-B / FITC-TR3 peptide fluorescence polarization; stronger effect = higher value; compound at 3.75 mg/L.
UniProt Q9HD36, sequence (Q9HD36 whole entry, looked up): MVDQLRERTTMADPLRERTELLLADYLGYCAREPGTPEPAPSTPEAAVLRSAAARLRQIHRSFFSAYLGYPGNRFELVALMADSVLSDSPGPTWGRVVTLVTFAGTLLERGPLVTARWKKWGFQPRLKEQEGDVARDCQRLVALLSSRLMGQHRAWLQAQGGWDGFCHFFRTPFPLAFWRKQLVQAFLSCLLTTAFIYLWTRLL
Consider `CC(=O)NC(NC(C)=O)c1ccc(N(C)C)cc1`, for which the displacement is 8.3%.

With `CCOc1ccc2ccccc2c1C=C1C(=O)NC(=S)NC1=O`, the displacement worked out at 14.5%. The figure for `CN1C(=O)/C(=C\c2ccc(-c3ccc(F)c(Cl)c3)o2)SC1=S` is 3.9%; for `COc1cc2c(cc1OC)S(=O)(=O)OC(C)=C2` it is -0.5%; for `COc1cc(NC(=O)c2ccc(Cl)c([N+](=O)[O-])c2)c(OC)cc1Cl` it is -6.1%. The figure for `COc1ccc(OC)c(CN2CCN(S(=O)(=O)c3ccc(C)cc3)CC2)c1` is -4.6%; for `O=C1NC(=O)N(c2ccc(Cl)cc2)C(=O)/C1=C/c1ccc(N2CCCCC2)o1` it is -88.2%; for `N#C/C(=C\c1c[nH]c2ccccc12)c1ccc([N+](=O)[O-])cc1` it is 18.7%.

With `NS(=O)(=O)c1ccc(Oc2ccc([N+](=O)[O-])cc2)cc1`, the displacement was -15.5%. The figure for `CC(=O)c1c(C)oc2c1cc(O)c1c2c(-c2ccccc2)nn1-c1ccccc1` is -7.5%.

With `CCOc1cccc(-c2nnc(NC(=O)c3ccco3)s2)c1`, the displacement was 14.6%.

For the compound `C#CCSc1nc2ccccc2n1C(=O)/C=C/c1ccco1`, the displacement is -10.8%. As for `CCCN1CCC(=NNC(=O)c2c[nH]c3ccccc23)CC1`, the figure is -17%. Turning to `O=C(CSc1nnc(-c2ccncc2)n1-c1ccccc1)c1ccc(F)cc1`, the displacement is -2.7%. As for `O=C(CSCc1ccccc1)Nc1nccs1`, the figure is -2.5%; as for `Cc1ccc(C(=O)N/C(=C\c2ccc(-c3cc(Cl)ccc3Cl)o2)C(=O)NCc2cccnc2)cc1`, 3.5%. The figure for `COc1ccccc1/C=N/NC(=O)CSc1ccccn1` is -2.1%; for `CC(=O)Nc1ccc(NC(=S)NC(NC(=O)c2ccc(C)cc2)C(Cl)(Cl)Cl)cc1` (stereo not given) it is 7.6%; for `c1ccc(Cn2c(COc3ccccc3)nc3ccccc32)cc1` it is -1%. With `Cc1ccc(NC(=O)Cc2nnc(NC(=O)Nc3ccc(Cl)cc3)s2)cc1`, the displacement worked out at 4%.

For the compound `CC(C)C(C(=O)O)N1C(=O)/C(=C/c2ccc(C(=O)O)cc2)SC1=S` (stereo not given), the displacement is -9.9%. The figure for `COC(=O)c1c(NC(=O)/C=C/c2cccc([N+](=O)[O-])c2)sc2c1CCCC2` is 5.4%; for `COc1ccc(C(=O)/C=C/Nc2ccccc2Br)cc1OC` it is 13.6%.

Regarding `O=C(CSc1nc2ccccc2o1)NC1CCCC1`, the displacement was -14%. The figure for `Cn1cnnc1Sc1cc(N2CCCC2)ccc1[N+](=O)[O-]` is 8.5%; for `COc1ccccc1OCC(=O)NCc1ccc2c(c1)OCO2` it is 1.4%. Turning to `O=C1NC(=Nc2ccccc2)S/C1=C/c1cccc(OC(=O)c2ccccc2)c1`, the displacement stood at 7.5%. `CC1(C)CC(=O)C(C(C2=C(O)CC(C)(C)CC2=O)c2ccccc2OCc2ccccc2)C(=O)C1` (stereo not given): the displacement was -9.7%. The figure for `COc1ccc(C(=O)NCC(C)c2ccccc2)cc1OC` (stereo not given) is 11.9%; for `COc1ccc(CC2S/C(=N\N=C\CCc3ccc(C)o3)NC2=O)cc1` (stereo not given) it is -9.6%. The figure for `CC(C)(C)NC(=O)c1cccc(NC(=O)c2cccs2)c1` is -3.6%; for `COC(=O)c1c(NC(=O)c2cccc(Br)c2)sc(C)c1C` it is 10.6%; for `C/C(=C\c1ccccc1Cl)C(=O)c1c(C)cc(C)[nH]c1=O` it is 42%.

Turning to `CCN1C(=O)/C(=C\c2cc(Br)ccc2OCCOc2cccc(OC)c2)SC1=S`, the displacement was -58.2%.

For the compound `O=C1CCCc2c1n(CC(O)CO)c1ccccc21` (stereo not given), the displacement was -2.7%. As for `O=C1C(=O)N(c2nccs2)C(c2cccc(Br)c2)/C1=C(\O)c1ccc(Cl)cc1` (stereo not given), the displacement is 11.3%. The figure for `COc1cc(NC(=O)COc2ccc(Br)c(C)c2)c(OC)cc1Cl` is -3.5%; for `CC(=O)Oc1ccc2oc(C)c(C(=O)O)c2c1` it is 3.5%.

In the case of `Cn1c(=O)c2c(ncn2CC(=O)Nc2nc(-c3ccccc3)cs2)n(C)c1=O`, the displacement amounted to 11.2%. As for `Cc1ccccc1S(=O)(=O)Nc1c(C)n(C)n(-c2ccccc2)c1=O`, the figure is -0.9%. Take `O=C(Nc1cc(C(F)(F)F)ccc1Cl)c1ccc2ccccc2n1`: the displacement is 11.2%. As for `COc1ccc(C2/C(=C(/O)c3ccccc3)C(=O)C(=O)N2c2cccc(C)c2)c(OC)c1` (stereo not given), the figure is -1.4%. As for `CC1CCN(C(=O)CSc2nc3ccccc3[nH]2)CC1`, the figure is 1%. Take `CC(C)(C)c1ccc(-c2nc(-c3cccc([N+](=O)[O-])c3)no2)cc1`: the displacement was -9.6%. The figure for `COc1ccc(C2CC(C(F)(F)F)n3nc(C(=O)NCCc4ccccc4)c(Cl)c3N2)cc1OC` (stereo not given) is 1.1%; for `CN(C)c1cccc(C(=O)Nc2ccc(Br)cc2F)c1` it is -7%. As for `COc1cc(/C=N/NC(=S)Cc2ccccc2)cc(OC)c1OC`, the figure is -0.4%. As for `COc1cc(CN2CCN(Cc3cccc(F)c3)CC2)cc2c1OCO2`, the displacement was -33.3%. As for `COc1ccc(CNCc2ccc3ccccc3c2)cc1OC`, the figure is -1%; as for `CC(NC(=O)CN(c1cccc(Cl)c1)S(C)(=O)=O)c1ccccc1` (stereo not given), 2.3%; as for `CC(c1ccco1)N(C(=O)COc1ccc(Cl)cc1Cl)c1ccccn1` (stereo not given), 0.4%.

Take `CCOc1ccc(NC(=O)CN(CCc2ccccc2)S(=O)(=O)c2ccccc2)cc1`: the displacement is -1.1%.

Turning to `O=C1Nc2ccccc2/C1=N\N=C\c1ccccc1[N+](=O)[O-]`, the displacement was -5%. The figure for `COc1cc(C(=O)N2CCN(C3C4CC5CC(C4)CC3C5)CC2)cc(OC)c1OC` (stereo not given) is -5.1%; for `COc1ccccc1NC(=O)C1=C(C)NC2=C(C(=O)CCC2)C1c1ccc(Cl)cc1` (stereo not given) it is 2.4%; for `CS(=O)(=O)N(Cc1ccccc1)c1ccc(C(=O)N2CCOCC2)cc1` it is 0.1%. For the compound `COc1ccc(OC)c(NC(=O)Cc2ccccc2OC)c1`, the displacement is 5.8%. As for `COc1ccc(-c2cc(-c3ccccc3)[o+]c(-c3ccccc3)c2)cc1`, the figure is 24%; as for `CCc1ccc(N2C(=O)/C(=C/c3cc(C)n(-c4cccnc4)c3C)C(=O)NC2=S)cc1`, 12.1%. As for `Fc1ccccc1N1CC(c2ccccc2)C(c2cccs2)=N1` (stereo not given), the figure is -7.4%. The figure for `COc1ccc2[nH]cc(CCN=C3SCC(=O)N3C)c2c1` is -5.8%.

For `Oc1ccc(/C=N/Nc2ncc(Br)cn2)c(O)c1`, the displacement is -9.3%. As for `O=[N+]([O-])c1ccc2nc(SCc3cccc4ccccc34)sc2c1`, the figure is -1.5%; as for `COc1cc(NC(=O)c2ccccc2Br)c2ncccc2c1`, -3.3%; as for `CC1=NN(c2ccc(C)cc2)C(=O)/C1=C\c1ccc2c(c1)OCO2`, 14.2%. As for `COC(=O)c1cccc2c1NC(=O)C2=O`, the figure is -7.2%. The figure for `Cc1sc(N/N=C/c2ccccc2)nc1-c1ccccc1` is -11.2%.

As to `COc1ccc(/C=C2\C(=O)NC(=S)N(c3cccc(Br)c3)C2=O)cc1[N+](=O)[O-]`, the displacement is 9.4%. As for `COC(=O)C1=C(C)NC2=C(C(=O)c3ccccc32)C1c1ccc(-c2ccc([N+](=O)[O-])cc2C)o1` (stereo not given), the figure is 10.7%; as for `Cc1ccccc1NC(=O)C(=O)NCCC1=CCCCC1`, -6.4%; as for `COc1ccc(Cl)cc1C(=O)NCc1ccco1`, -1.3%. Consider `CCN(CC)c1ccc(C(=O)NCC(=O)OC)cc1`, for which the displacement was 0.8%. The figure for `CCCCCCOc1ccc(N2C(=O)CC(N3CCN(c4ccc(F)cc4)CC3)C2=O)cc1` (stereo not given) is -2.8%; for `Cc1cc(NC(=O)c2ccc(-c3cccc(Cl)c3)o2)ccc1NC(=O)c1ccco1` it is 1.3%; for `COc1ccc(CCNC(=O)c2ccccc2)cc1OC` it is 2.5%. As to `CC1=C(C(=O)OC2CCCCC2)C(c2ccc3c(c2)OCO3)C2=C(CCCC2=O)N1` (stereo not given), the displacement is -12.5%.

In the case of `CN(C)C1=C(C#N)C(C2CCCCC2=O)c2c(c3ccccc3n2C)N1c1ccc([N+](=O)[O-])cc1` (stereo not given), the displacement came to 27.5%. Regarding `CS(=O)(=O)c1ccc2nc(NC(=O)c3cc(-c4cccc(Br)c4)nc4ccccc34)sc2c1`, the displacement is -3.4%.

Take `COc1ccc(Br)cc1/C=N/OC(=O)c1ccccc1`: the displacement came to 3%.

Consider `CN1CCc2c(sc3[nH]c(=S)n(CCc4ccccc4)c(=O)c23)C1`, for which the displacement is -5.1%.

In the case of `Nc1cccc(C(=O)Nc2ccccc2)c1`, the displacement came to 7%. `COc1ccc(C(=O)Nc2cccc(-c3nc4ccccc4s3)c2C)cc1`: the displacement was determined as 0.9%. `O=C(c1ccccc1F)N1CCN(c2ccc([N+](=O)[O-])cc2Cl)CC1`: the displacement was 4.9%. As to `COc1ccc(Cl)cc1C(=O)Nc1cc(C)on1`, the displacement is 10%. As for `Cc1ccc(C(O)C#CC(O)(c2ccccc2)c2ccccc2)o1` (stereo not given), the figure is 5%. The figure for `CN1CCN(C(=O)c2ccccc2Oc2ccccc2)CC1` is -6.3%; for `Cc1cc(=O)oc2c1c(C)nn2-c1cc(Cl)ccc1Cl` it is 3.2%. As for `Cc1c(NC(=O)C23CC4CC(CC(C4)C2)C3)c(=O)n(-c2ccccc2)n1C`, the figure is -12%; as for `Cc1cccc(OCC(=O)Nc2ccc(Nc3ccccc3)cc2)c1`, -17.2%. Take `C=CCn1c(Cc2ccccc2)n[nH]c1=S`: the displacement is -5.1%.

On to `COc1ccc2ccccc2c1C1C(C(C)=O)=C(C)N=c2s/c(=C\c3cccc(O)c3)c(=O)n21` (stereo not given), for which the displacement is -12.1%. As for `CS(=O)(=O)N(CC(=O)NCCc1ccccc1)c1ccc(Br)cc1`, the figure is -9.6%.

Take `COc1ccc(N(CC(=O)Nc2ccc(C)cc2)S(C)(=O)=O)cc1`: the displacement came to 2.3%. As for `CN(C)c1ccc(C(=O)NCc2ccccn2)cc1`, the figure is -13%; as for `CCC(C)(C)C1CCc2c(sc(NC(=O)OC)c2C(N)=O)C1` (stereo not given), -1.6%.

For `CCOC(=O)/C(=C/c1cc2ccccc2n1C)[N+](=O)[O-]`, the displacement is -3.5%.

`O=C1NC(=O)N(c2ccccc2)C(=O)/C1=C\c1cccn1-c1ccc([N+](=O)[O-])cc1`: the displacement is -25.5%. With `CCOC(=O)C(=O)Nc1ccc(NC(C)=O)cc1`, the displacement is -4.5%. The figure for `O=C1CC(NCc2ccc(Cl)cc2)C(=O)N1c1ccc(F)cc1` (stereo not given) is -4.2%; for `CCCCOc1ccc(NC(=O)CSCC(=O)OCC)cc1` it is 2.4%. The figure for `Cc1cc(C)n(-c2c(F)c(F)c(COC(=O)c3ccccc3)c(F)c2F)n1` is -1.8%; for `Cc1ccc(OCC(=O)NCc2ccc3c(c2)OCO3)c(Br)c1` it is -7.2%; for `O=C1N=C(N2CCOCC2)S/C1=C\c1ccccc1` it is 5.8%. The figure for `CCOC(=O)c1ccc(N2NC(=O)/C(=C/c3ccccc3O)C2=O)cc1` is 16.7%; for `COc1ccc(C2CC(=O)C3=C(C2)Nc2ccccc2NC3c2ccc(OC)c(OC)c2)cc1` (stereo not given) it is -10.2%; for `COc1ccccc1/C=N/NC(=O)CCc1c(C)n[nH]c1C` it is -12.8%. For `COc1ccc(C(N)=O)cc1NC(C)=O`, the displacement was -8.6%. The figure for `O=C(CC(Nc1ccc(Br)cc1)c1ccc(F)cc1)c1ccccc1` (stereo not given) is 5.7%; for `O=C(O)c1ccccc1C(=O)NC1=NN(c2ccccc2)CC1` it is 13%; for `O=C(NCC1c2ccccc2CCN1C(=O)c1cccs1)C1CCCCC1` (stereo not given) it is -5.4%.
